# Measured values reported in article PMC10726135.
# The other results are listed elsewhere or left out. At the low end of the ranking the order means little. The protein was read in a cell extract, so binding may be indirect.
# Target: T1, HNF4alpha8 (COS-7 nuclear extract) (UniProt P41235-5)
# T1 sequence: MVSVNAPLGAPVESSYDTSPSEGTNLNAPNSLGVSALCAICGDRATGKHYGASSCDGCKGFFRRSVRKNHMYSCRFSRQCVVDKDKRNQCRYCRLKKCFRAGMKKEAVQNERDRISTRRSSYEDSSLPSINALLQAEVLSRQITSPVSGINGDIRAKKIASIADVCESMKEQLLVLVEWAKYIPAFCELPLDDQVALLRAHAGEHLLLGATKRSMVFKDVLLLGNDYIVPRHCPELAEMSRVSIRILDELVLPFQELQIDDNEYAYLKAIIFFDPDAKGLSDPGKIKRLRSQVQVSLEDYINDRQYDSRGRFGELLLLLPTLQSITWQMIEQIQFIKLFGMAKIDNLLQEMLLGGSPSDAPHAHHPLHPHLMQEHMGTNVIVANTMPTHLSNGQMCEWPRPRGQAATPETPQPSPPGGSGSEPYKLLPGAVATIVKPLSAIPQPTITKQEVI
# Assay: protein-binding microarray
# Details: COS-7 nuclear extract on double-stranded Agilent 4x180k PBM; binding buffer, salt, pH and temperature not given; high values mean tight binding; double strand, one strand shown; sequences stand for … in …GCCTAGGGAGATTAGAGTATCGGTCGA
row,Sequence,binding signal (log2 normalized intensity)
1,TAAATGACATAGTGACATTTACAGATAAAG,-0.971
2,GCCACCTGCTGGCTGAGCATCACCAGTGCA,-1.43
3,CTCCCTCCCTCCCCCATTAGAGGCACACTC,4.45
4,TCCTGAGTGATTGTAGTGTCATTGTTATTT,1.98
5,AAGGAAATATCTTCCCATAAAACCTAGACA,-1.08
6,GGTGAGTGGGGAAAGAGCCCCTTTGTCCAT,0.812
7,TCGGTCACCCACACAAAAATGTGCCTTCCC,-1.24
8,TGTTCACAAGGAATTGGAATTGGGAGGACA,-0.642
9,CAGGACCATCTCGTCCCGTCAATCTGCAGC,-1.23
10,TGGATTCCTCCAGCCCTCCTCTCTGTAGTC,0.728
11,CGACTACAACAGCCTTGCAGATAAGCCACG,-1.49
12,GAGGCCAGTCTTACTGCTTTCTATTCAGAC,-1.27
13,TCTCCCACAAGGGCAGCCCTGTTTAGGAGG,-1.3
14,TGTTCTGTTTAACAGAGATTTGCAGCTCAA,-1.34
15,CCTAGCTGACTGCGTCAGGCAGTTGGAATT,0.00218
16,GACTGGAATGTCAAAGGGACAGCACTGGCA,-1.27
17,TTTGTCCTGGCACAACTGGATGGTGTTTGA,1.19
18,TGGTGCTATCTTTGCTCACTGTAACCTTTG,4.34
19,GTGAATGGATGGATCCGCAGCCAGGGCTGT,-1.24
20,ACTTCAAAGGGTGTTGTGACTACCTGGTTA,0.742
21,TTAGTCTTATCTGAGGTGCCCTTACATTTT,1.95
22,CCTTTGCCTCCACCTTCTCTCCCACTTATC,0.941
23,TCCAACCTTTGCTCACTTGGGGGTGGGGTG,2.78
24,ACAACCAGGGAGATGTGAGCGACCTTTGCA,4.55
25,CCCATCAGCTGGGCTTGTTCAAATAACAGC,-1.38

row,Sequence,binding signal (log2 normalized intensity)
1,ACCTTTGTCCTCATTGAGCCCTCCCCTTGT,4.38
2,AAATCCCGAGCCAGAGCCAAAGGGCATATT,2.23
3,TAAGGTTCAAAGGGAAAAAATAATCAGCTT,-1.12
4,AAAACCCATGGACCTGACACCCGCTGGCGC,-1.22
5,CTCGGGGATGGCATGTCTCTGGTCGGGGAG,-0.939
6,AAAGGCCACCACAAACCCTTCATCCAGCTG,-1.42
7,CTATTCAGGTATTTGCTCTGTGATAGCCTT,0.476
8,GATGATCATGGCTCACTGCACCTTGACCTC,8.12
9,GGTGGACTTTCCCCCCTCACACTTTGGCTA,4.24
10,CGATGTATACAGTATCTATAGTTATTGCAT,-0.171
11,AAGCTATTCACTTTTTGGCCTTTGGCTGTT,3.01
12,CTGGTCTTTGTCCTGGGAGAACAAACCTTA,1.01
13,ACTTTGGCGTGCTGTGTACTTTGAACTGAA,6.92
14,CGGGCCCCAAGTGGCCATCTTCACGCAATA,-1.36
15,TCATAACACTTGTATGACCTTTGTTTTATT,5.08
16,TGAATTAGTACCTCAATGCTATCTCCCAGT,0.716
17,TGTAGGTAAGCACAAAGTACAGCTTTTTGT,1.39
18,CCGGGGCGCCCTTTGTTCTCCGGGTTCTGC,2.53
19,CGCGAGAGCCGAAGTCTCTCGCCGAGGCCC,-1.3
20,TTGTCAGATGAGGAAATTGAGGCTTAGCAG,-1.32
21,GATATTTAACCTTTGATCTGTAAGCTCTCT,5.39
22,AGAAAGTAGAACGGTGGTTGTCAGAGACTG,-1.18
23,TTAACACAGGACAAATCAAGTGAAATGCCA,-1.28
24,AGTGATAAGCAGAGGATGGGAATTAGGGAG,-1.32
25,CTGCCTGTCTCACCTCGCTATCACCCCGAT,2.72

row,Sequence,binding signal (log2 normalized intensity)
1,CGAGATCAAGGGACAGAGATAACTGGGGGC,-1.31
2,TGTGATGTTTGTAAACTGTCATGGTGCTGG,1.25
3,GTGTTGTGCTGACCTCCTGTCTCATCCTGT,1.98
4,TCTGTTGGTGGCACAGGGAATGGCTCGTAT,-0.108
5,GTGAGGCATCTGGACCATTGCTGACCTTGC,3.69
6,TTCCAAAGTTCAACCTCATTATCTTCAGTC,2.05
7,ACGATCAGCCAGCAGGGGGCGCAGAAGGGA,-1.24
8,ATGTGGGGAAACTGGACTGTAATTTGTGGT,1.34
9,AGGTGTCAGGGGTCAATGTGCACATTCGAA,5.06
10,GGAAGAGAAGACCAAACAACCAGGGAGATG,-1.3
11,GCGTATTTCAACCTTTGATCTATAACCACG,5.51
12,AGGTCCAAACTTCTCCACTCTTCATAATTA,-0.86
13,TCCAGGCTGCACAGTGGGGAGGGCAGGGTC,2.52
14,ATCGAAGTCTGGGAAGCTGTGTGAAGTGAC,-0.114
15,AACAAACAGTACATTCTGGAATGATACGCC,-0.937
16,CCAAAGAAGAAAACAATGACCTCTGCACCC,6.16
17,ATAACCATCAAATCCTCGGAAGACGCACCT,-1.29
18,CATTTGCTCCCAGTGCACACAGACTTTTGT,0.698
19,ACTTTGGGGAAATGACCTTTGTCCAGCTGT,7.84
20,GAAAATCAAAGACTCAGATGAGTTTCTTCA,-0.907
21,GTGCAGTATCCCAGGGACTTACTCAACTAG,-1.31
22,GGATGTGGGGTATCAGGTGGTGATGGTGGG,1.23
23,AGCTGGCACAGCAGATGCTGGGCAAAGGGC,4.21
24,TGCAGTAAATGGACAGACACACCCTTCAGA,-1.24
25,TTCCCCAGTGAGGATGTGTGCTCGAGGTGG,1.11

row,Sequence,binding signal (log2 normalized intensity)
1,CTTCCCCAAACTAGGAGAGTGGACTCACAG,3.31
2,CTGAGTTACAGATAAGCAGAAGGTCAGGTG,1.77
3,ACAGGTGGACAAACAGGCTGAACATGACTG,-1.33
4,CTATGCACACGTTCAGTTAGAGGGCTCAAT,-1.23
5,GCAACAGAAAACTCAACTTCTAACTTCCGG,-1.22
6,CCTAAAAATTATCTTTATCTTTTCACTTTT,0.601
7,TAATTTTCAACCTCTTTCTCTTTGATGTAA,0.817
8,GACCTTTGATATTTGTGCCTAGTGGAAGGT,4.39
9,TTATCAGCAGTGACTTGAGAGGCCAGTTTC,0.207
10,CTCCTCAACCTCTCCAATGCTATGCTTTTA,-1.29
11,GACAGTGAGACGCAAGCATATCTCTAGATC,-1.29
12,ACATGTCAAAGGTCAAAGGGCATAGCCTCA,5.75
13,GCTGCGGATCAAAGGAGCTGGGCCTGTGCT,-1.35
14,ACGGAGCTGCCTCACATGAGCTAGAGCTCG,-1.26
15,GTCTCTTCCTCAGTTTGTTCTTGGGGCCCA,1.43
16,GGACTCTGCCCTTAGCAGTGGGAGACAGGC,3.76
17,CTGTGTCAAAAATCAGGGACAAAGTCCAAA,7.06
18,AGTCTCTAGCCCCGCCCAGATGTCTGGCTA,2.67
19,CAGAAGCTGAGCTCCCCCAGTGAGCAATTC,2.88
20,CTAACCTTTGAACCAGATGGCCCTCTCCAA,3.28
21,AAGTTTGTTTCTTATCACACAGTCAACATG,1.43
22,TTTGGTGAAACTCCACTACATTAGCAGCGC,-1.05
23,CAGTCCTCTGCTTATCTGGCCTGCTGGGAA,-0.172
24,CTGAGCCCTTATCTTTTTAGCAACTGGTAT,1.14
25,AAAGAAGAAGTGAAAAGTCGTTTTCAGTGT,0.217

row,Sequence,binding signal (log2 normalized intensity)
1,CCTTTGGCATTGTGTTACGTCTGGTTTCTT,1.67
2,AGTTATCTAAGACCCATCCCTCAGGGTCCA,4.17
3,TTACGTAAGTGAAAGTACACAGTGCCTGCT,-0.84
4,TATCATCCCTATCACTCAAGAAATGGCAGT,-0.405
5,CTTACCCCTTTGCTGATTACCTCAACTCCC,1.55
6,AAAGGCCTTTGAAGCTTGAAGGAGTATATG,0.256
7,ACAGAGAGGCTTCTGGCCAGGCAGAGCAGG,-1.36
8,TTGACTGAGACTGCCTCAAACAGCTTCGCC,-1.35
9,AACAGGTCCTGCTGGTTTGCCATTTGGAGA,0.548
10,GTATGAGGGTGAAGTTTGGCAATTACCCAA,-1.27
11,ACGGTGGGCACCTCATACTATACCTGATAG,-1.21
12,TTGCCTAAAGGGGATTTTCTCAGCTCTCCT,-1.3
13,GGATCAAAGGAGCTGGGCCTGTGCTGGGGA,-1.35
14,GTCTGCCCTCCATGTAACCCCTTTTCAATT,3.57
15,TAAAGTCTGCTATCTAAAAGCTTATCTGCA,-1.22
16,ATGTTTTCACCAAGAGGGAAAAGATGGTCT,0.365
17,AACAAATAAATAAGAAGCCTTATCAGTATC,-1.28
18,CGGTGGGACTAAATTCTGCGGCGGAAGGAC,-1.36
19,TAACTTTTGTCTCTGGAGGGATCAGGTCTT,1.25
20,TAGGGTAGGGTTAGGGTTAGGGGTTAGGGG,0.702
21,TTATATTGAATTCCTGGAAATCCCGAAATA,-1.38
22,AATTTCCAACAAATGAAACTAAAGGCACCT,-1.15
23,CAGCAGTGTACTTGAGCTTCCAGTTAAGCA,-1.34
24,AATCCCAGCTCGTGGGCATGCCTCCCAGAG,-1.22
25,CCTGCCAACTCCACGCCCGCCGCCAGGTGG,-1.32

row,Sequence,binding signal (log2 normalized intensity)
1,GGTCACATGCCTAGGTAAGCCCACTAGGGA,-1.36
2,AGGCACTTAGCAAATATTTACTGAATGAAT,-1.17
3,ACACCTGTTCTAATCAGTAGCTCACAAATA,-1.32
4,GGGGGGTGTTATCTCTGATGCCCTTTGGCC,7.01
5,CCCAGGCTTATCTCACTCCAAAGGCTGTTT,0.193
6,GTCGCTTGGAAAAAAAAAAAAAAAAAAGAA,-1.34
7,ACCAGGGGCCAGCAAGAGGTGACCCCAGGG,4.66
8,CCTTCCAGCAGCAGGCCTGGGGGCAAAGTC,3.59
9,GTTACAGTGGAGAAACCTGACAGACTGGAC,-1.37
10,AAGATAGAGGCTTTAGCAATAAATTCTGTT,-1.3
11,CTGTGTTTTGCCCCTGCAGAGTTTTTTACT,1.91
12,GTGGGGAAAGAGCCCCTTTGTCCATTATCT,0.534
13,AGTGGAAATTGTCCTGCGGTTGGCTCAGGC,-1.31
14,TCCATCTAAATGGCAATGGCTGCAGCTCTT,-1.32
15,GACAATGGGAGACATTCCTTCAGCGTGAAC,-0.781
16,CGGACAGGTAACGTAAACAAGTAAGGAAGA,-1.36
17,TCAAAGTGTCAGTCCAGAGTTTGTGGCTCC,0.982
18,CAGGTATTTGCTCTGTGATAGCCTTTTACC,1.5
19,TAGAAAGTGGTTTCAAGGTGACCCCACGGA,4.79
20,AATGCAGGGAGCAGAGTCCCAAGCATCTCT,-1.29
